Measured values from the RNAGym collection of RNA variant scans (doi:10.1093/nar/gkz1192).
The source gives no read counts; variants with many changes may rest on few reads.

B1: CPEB3 Ribozyme (parent)
chain: UAACAGGGGGCCACAGCAGAAGCGUUCACGUCGCAGCCCCUGUCAGAUUCUGGUGAAUCUGCGAAUUCUGCUGUAUAUCUC

Variants of: B1
Experiment: self-cleavage, relative activity (ratio to wild type); higher = more cleavage; in vitro, sequencing
Method in brief: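 CPEB3 self-cleaving ribozyme mutant libraries were made by rounds of error-prone PCR, barcoded, and transcribed in vitro with T7 RNA polymerase for 5 hours at 37°C. Cleavage occurred during transcription and a 15 min DNase I step before EDTA stop. RNAs were reverse transcribed with template switching and Illumina-sequenced, with DNA sequencing mapping barcodes to variants. Relative activity is the variant's cleaved/total read fraction divided by wild type's (minimum 5 reads), averaged across three batches.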

Variant	self-cleavage
U26G U31C G53A U80C	0.1
A28C C40U A56G	0.29
A28G A35U A57G	0.1
U26C A35G U51G A64U U72C	0.41
C27U U54C U72C	0.24
U26C G42A A47G C79G	0.07
U26C A45G U58A U76C A77G	0.1
U26C C40U A65G U67C	0.12
U26G U49C C50A U78C	0.26
U26A U69C U76C A77U	0.47
A28G A45U U78C	0.17
U26C A35U U69C U78C	0.22
U26C A28G U58C U67C U69A U74A	0.05
C27A U41C C68A	0.19
C27U A28G U43A U48C U49C	0.24
C27U U43C U60A U69C	0.12
U26C C29U C62U	0.12
U26C G33U G46U U72C	0.12
U26C A56G U58C	0.18
A28G A56G A64G U72C	0.48
A28G C37U U67C	0.04
A28G C32U A64G U80C	0.09
U26C A57G U67A	0.2
U26C A47G U67C	0.16

Variant	self-cleavage
U26C C34U G63A	0.2
U26C U41A U72A U78A	0.08
U26C C62A U69G	0.08
U26C A28C U31A A35U U51A	0.17
A28G A45G U54G U60C C71G	0.14
U26G U49C G55A U78C	0.04
U26C A28G U41C U48C U78A	0.23
A28G C39U A45U G46A A64G	0.19
U26A U66C U80C	0.57
U26C U67C U72A	0.1
U26C C37U U54A	0.32
U26C A64U C68A	0.35
U26C U31C U48C A57G U74C	0.51
A28C G42A U51C A56G U80C	0.09
U26C C37U U51C	0.17
U26C U60G A64G U69A	0.09
U26C A35G A64U	0.65
U26C C38A A45G U72A	0.06
U26C A28G U41G C44U A45G U74C	0.28
U26G G33A A75G	0.07
C27A A35G A56U U66C U78A	0.07
C27U A57G U72C C79U	0.47
U26C A45G U69C	0.11
A28G C29U U41A C44G A45U U48C A77U	0.13

Variant	self-cleavage
U26C U51A A64G U80C	0.22
U26C C62U U76A	0.14
U26C C62U U67C U72A	0.33
A28G A57G U72C	0.41
C27G U41A U66C	0.04
A28G A45G A64C U76C	0.12
A28G C37U U67C U72A	0.08
U26G U43A U51C A56G U69C U72C U76A	0.04
U26C U43C A57G U72C	0.55
U26C C59A A64G	0.08
U26G U31C G53A A57G	0.06
C27U C40U A65G	0.08
U26C U43C A45G U72C A77U U80C	0.89
U26C G36A U54C	0.16
A28G A35U U43A	0.41
A28G C29U U54C A64U	0.12
U26C A47G U54A U72C	0.26
U26C U60C U76C	0.16
U26C A28C U69A U72G U78C	0.13
U26C C32U U43C A45G U60A	0.1
U26C C40U A64G	0.26
A28G C39U G55A G61A C62A U66C U72A	0.05
U26C U31G A47G A64G U78C	0.26
U26C U51A A57G	0.16

Variant	self-cleavage
A28G C34U U69A	0.13
U26A U69A U80C	0.53
U26C C27G U41C U49A U51C U69C	0.06
U26C A57U A75U	0.18
U26C G30U U31C U60A	0.18
U26A U67C U78A	0.14
U26C U41A U51A	0.41
A28G A35C A65G U67C U69C	0.1
U26C A45U U48C U66A U76C	0.86
U26C U41A U67A U76A	0.13
U26C U31A U74A	0.15
U26C A35U U49C G52C U74C	0.13
A28C C32U U49C U54C	0.07
A28G C37U A45G A47G A56G G63A	0.06
C27A G53A U54G A65G U69A A77G	0.05
U26C U43C U76C U78C	0.63
U26C A28G C32U U76C U80C	0.24
U26C U31A A77U U78C	0.2
U26C U43A A45G U69C	0.06
U26C A28U U60C U69A	0.17
A28G A35G U41C A57U U67A	0.21
C27U U43C A65G U78A	0.18
U26C U31C U41A A56G	0.19
U26C A45G U66C U80A	0.62

Variant	self-cleavage
U26C A64G U72C C81A	0.09
U26C A57U U78C	0.12
C27U G33A U51G A57G U58C	0.21
C27U A28U C29G U48C U69C U74A	0.08
U26C U41C A65G	0.69
U26C U31A A35G U41A U54G	0.26
U26C C40U G42C U58C	0.15
U26C A45G C71G	0.12
U26C G55C A64G	0.34
U26C U49C U66C	0.41
U26C A28U U41A U72C	0.12
U26G U58C U60G	0.11
U26C A64G U72C U76C	0.23
C27A C40U U60A U69A	0.11
A28G A35U A47G U66C C71A U72A	0.05
U26C A35G G63A U69C	0.29
U26C U43A A56U U60G	0.08
U26C C50A U67C	0.36
A28G C29U G70A	0.15
U26C A64U U76A	0.1
U26C A47U U54C C62U	0.25
U26C U31A A64U U80A	0.15
A28G A56U C71A	0.37
C27G U48C U67A	0.08

Variant	self-cleavage
C27G A47G U60A C71G	0.12
U26G G33C C40U G55C A57G U58C	0.07
U26C A35G U72A	0.57
A28G C32U A57G A77U	0.44
U26C U49C A77G	0.21
U26C U72C A77U	0.62
C27U U31A G33A A35G U60C	0.17
U26C U41G A45G A47G U51A U78C	0.07
U26C U49A U58A	0.11
U26C U31A U49C A56G	0.14
U26C A56C A77U	0.46
U26C U41A A56U	0.15
U26G A47C A57G	0.14
U26G A47U U54C U60C U78C	0.08
U26C U51C A77C	0.42
U26C U43A U51A C59U A64G	0.13
A28G C40A U54A U67A U74A	0.09
U26C U31C U67C	0.16
U26C U48A A75G A77G	0.1
C27A U49C U78A	0.11
U26C U41C A75U	0.4
U26C A28G G53U	0.25
U26G U51C A64G	0.17
A28C C29G C37A	0.15

Variant	self-cleavage
U26C A57G U60C	0.37
U26G U60C U80C	0.34
C27U U60C A77U U78C	0.07
A28C A35G A47G	0.83
A28G A45C U69C A75G	0.09
C27U U41A U69C A77G	0.13
C27U A57G U80C	0.41
A28G A35G A64G	0.95
U26C A35G U49C G52A U80C	0.97
A28C A56G U69A U72C	0.1
A28G C37U U72C	0.33
U26C A56G U80A	0.37
U26C A28G G61A U67C	0.14
U26C A35U U41C A45G U54A U72C U78C	0.08
U26C U31A U43C A64G	0.14
C27A A45U U48C	0.18
U26C C27U G33A U43C U51G	0.2
C27U G33A A35U G53U U69A A77U	0.06
U26A U66C C71A U74G	0.17
A28G C32U U41C	0.43
A28G A45G U48C A65G	0.11
U26C U54A U80C	0.53
U26G U54A A77U U78C	0.25
